± gives the uncertainty stated by the source. The sequences are guide strands of siRNAs; only the seed at positions 2 to 7 varies.
What was measured:
[1] = test system: 3LL; experiment: cell viability relative to siNT1 control; higher = less toxic; conditions: concentration: 10 nM; 96 h; Mus musculus;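 note: Luminescence-based viability of cells reverse transfected in 384-well plates with lipid-complexed siRNAs built on a non-toxic 19mer backbone whose passenger strand carries 2′-O-methyl groups at positions 1 and 2, triplicates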
[2] = test system: M565; experiment: cell viability relative to lipid-only control; HeyA8 human ovarian and H460 human lung cancer; M565 mouse liver and 3LL mouse lung cancer; siNT1 is a non-toxic control siRNA; higher = less toxic; conditions: concentration: 10 nM; 96 h; Mus musculus
[3] = test system: H460; experiment: as above; conditions: concentration: 10 nM; 96 h; Homo sapiens
[4] = test system: HeyA8; experiment: as above; conditions: concentration: 10 nM; 96 h; Homo sapiens
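Throughout, for cell viability relative to lipid-only control: reverse lipid transfection in 384-well plates, in triplicate, of duplexes on a non-toxic 19mer backbone with passenger strand 2′-O-methylated at positions 1 and 2, luminescence viability read-out.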

Sequence	cell viability [1] [%]	cell viability [2] [%]	cell viability [3] [%]	cell viability [4] [%]
UUUACGCACAUGUAAACCAAA	77.7 ± 4.6	80.2 ± 19	89.7 ± 6.5	91 ± 4.5
UUUACGGACAUGUAAACCAAA	96 ± 3.4	90.4 ± 9.4	98.5 ± 10	103 ± 1.8
UUUACGUACAUGUAAACCAAA	94.4 ± 6.6	57.2 ± 10	91.8 ± 13	92.5 ± 4.1
UUUACUAACAUGUAAACCAAA	98.2 ± 2.8	79.3 ± 8.5	95.4 ± 7.5	96.2 ± 4.6
UUUACUCACAUGUAAACCAAA	92.2 ± 6	40.3 ± 7.5	95.4 ± 6	73.2 ± 1.7
UUUACUGACAUGUAAACCAAA	103 ± 6.7	78.8 ± 14	92.1 ± 12	103 ± 5.8
UUUACUUACAUGUAAACCAAA	90.8 ± 4.6	73.5 ± 8.2	90.7 ± 13	97.4 ± 5
UUUAGAAACAUGUAAACCAAA	105 ± 9.5	97.4 ± 10	105 ± 5.8	101 ± 10
UUUAGACACAUGUAAACCAAA	81.1 ± 6.6	68.6 ± 5.6	82 ± 7.4	95.7 ± 4.5
UUUAGAGACAUGUAAACCAAA	94.94 ± 0.8	91.8 ± 13	90.4 ± 10	97 ± 1.3
UUUAGAUACAUGUAAACCAAA	87.7 ± 8.4	73.7 ± 11	83.1 ± 9.7	85.2 ± 5.7
UUUAGCAACAUGUAAACCAAA	95.9 ± 6.1	83.7 ± 5.5	87.4 ± 14	98 ± 4.8
UUUAGCCACAUGUAAACCAAA	10.5 ± 1.5	30.7 ± 1.8	38.2 ± 4.6	55.3 ± 7.2
UUUAGCGACAUGUAAACCAAA	93.9 ± 7.4	90.5 ± 12	83.3 ± 16	102 ± 7.2
UUUAGCUACAUGUAAACCAAA	26.5 ± 1.9	71.4 ± 3.8	77.5 ± 6	67.7 ± 3.7
UUUAGGAACAUGUAAACCAAA	89.4 ± 3.6	79.5 ± 2.9	71.6 ± 12	91 ± 6
UUUAGGCACAUGUAAACCAAA	68.1 ± 5.4	38.1 ± 0.6	69.3 ± 3.3	62.3 ± 3.9
UUUAGGGACAUGUAAACCAAA	89.8 ± 2.1	82.7 ± 6	57.2 ± 2.3	85.2 ± 4
UUUAGGUACAUGUAAACCAAA	89.4 ± 7.5	85.9 ± 7.6	71.6 ± 5.7	94.1 ± 8.6
UUUAGUAACAUGUAAACCAAA	106 ± 11	101 ± 14	86.5 ± 15	99.8 ± 3.1

Sequence	cell viability [1] [%]	cell viability [2] [%]	cell viability [3] [%]	cell viability [4] [%]
UUUAGUCACAUGUAAACCAAA	90.8 ± 3.5	89 ± 13	78.4 ± 12	77.3 ± 8
UUUAGUGACAUGUAAACCAAA	86.5 ± 3.2	66.4 ± 8.8	75.4 ± 7.7	94.7 ± 4.8
UUUAGUUACAUGUAAACCAAA	99.1 ± 6	95.8 ± 6	79.8 ± 5.9	91.2 ± 2.4
UUUAUAAACAUGUAAACCAAA	101 ± 5.4	96 ± 7.5	91.8 ± 11	96.8 ± 8.2
UUUAUACACAUGUAAACCAAA	91.9 ± 6.9	81.7 ± 11	72.2 ± 2.6	89.3 ± 2.7
UUUAUAGACAUGUAAACCAAA	96.2 ± 5.6	70.9 ± 13	71.7 ± 3.3	92.2 ± 10
UUUAUAUACAUGUAAACCAAA	90.2 ± 5.8	80 ± 1.8	76 ± 20	94.6 ± 9.8
UUUAUCAACAUGUAAACCAAA	99.8 ± 7.4	87.1 ± 7.6	67 ± 1.7	101 ± 6.3
UUUAUCCACAUGUAAACCAAA	42.9 ± 5.4	29.5 ± 2.3	74 ± 0.76	76.1 ± 9.2
UUUAUCGACAUGUAAACCAAA	93.9 ± 11	77.6 ± 19	83.7 ± 17	95.9 ± 4.9
UUUAUCUACAUGUAAACCAAA	99.2 ± 8.9	67.6 ± 8.8	67.6 ± 8.1	92 ± 4.4
UUUAUGAACAUGUAAACCAAA	99.8 ± 12	98.7 ± 15	95.2 ± 4.2	93.5 ± 8.2
UUUAUGCACAUGUAAACCAAA	24.9 ± 2.3	29 ± 5.9	18.3 ± 2.7	23.1 ± 3.7
UUUAUGGACAUGUAAACCAAA	79.9 ± 5.3	31.6 ± 6.5	70.4 ± 10	63 ± 7.5
UUUAUGUACAUGUAAACCAAA	58.6 ± 6.7	50 ± 20	61 ± 4.2	80.4 ± 4.9
UUUAUUAACAUGUAAACCAAA	92.4 ± 4.9	87.4 ± 18	76.1 ± 18	95.5 ± 1.5
UUUAUUCACAUGUAAACCAAA	84.1 ± 4.4	56.2 ± 3.2	61.2 ± 9.7	78.5 ± 3.4
UUUAUUGACAUGUAAACCAAA	102 ± 6.9	96.1 ± 2.1	92.9 ± 18	88.2 ± 3
UUUAUUUACAUGUAAACCAAA	93 ± 6.8	84.3 ± 5.6	60.4 ± 2.6	81.4 ± 7.1
UUUCAAAACAUGUAAACCAAA	94.2 ± 9.1	84.1 ± 6.5	53.2 ± 4.4	99.6 ± 3.4

Sequence	cell viability [1] [%]	cell viability [2] [%]	cell viability [3] [%]	cell viability [4] [%]
UUUCAACACAUGUAAACCAAA	68.71 ± 0.48	70.9 ± 7.6	49.9 ± 7.9	83.6 ± 7.2
UUUCAAGACAUGUAAACCAAA	93.2 ± 3.5	67.4 ± 2.2	51.9 ± 5.7	93.6 ± 2.8
UUUCAAUACAUGUAAACCAAA	96.9 ± 6.6	88.5 ± 10	51.9 ± 0.83	95.1 ± 5.3
UUUCACAACAUGUAAACCAAA	100 ± 6.6	78.2 ± 7.9	24.5 ± 2.7	98.7 ± 3.1
UUUCACCACAUGUAAACCAAA	49.4 ± 4.3	60 ± 7	39.9 ± 1.9	48 ± 4.4
UUUCACGACAUGUAAACCAAA	103 ± 4	85.2 ± 13	20.7 ± 2.7	102 ± 1.3
UUUCACUACAUGUAAACCAAA	74.1 ± 6.8	86.5 ± 7.7	29.4 ± 5.5	82.7 ± 3.3
UUUCAGAACAUGUAAACCAAA	94.6 ± 5.8	78.5 ± 11	56.6 ± 2	80.9 ± 2.4
UUUCAGCACAUGUAAACCAAA	50 ± 7.1	94.7 ± 13	30.2 ± 4.5	69.8 ± 6.9
UUUCAGGACAUGUAAACCAAA	94.3 ± 3.8	50.8 ± 8.4	34.9 ± 2.9	91.1 ± 6.4
UUUCAGUACAUGUAAACCAAA	75.4 ± 6.9	52.5 ± 6.3	50.9 ± 2.5	72.5 ± 1.1
UUUCAUAACAUGUAAACCAAA	112 ± 9.4	82.6 ± 9.7	37.4 ± 3.3	97.8 ± 7.2
UUUCAUCACAUGUAAACCAAA	81.1 ± 5.1	70.2 ± 2.9	30.3 ± 1.6	53.9 ± 6.8
UUUCAUGACAUGUAAACCAAA	103 ± 8.5	82 ± 8	35 ± 7.6	100 ± 2.5
UUUCAUUACAUGUAAACCAAA	98.6 ± 7	81.8 ± 6.4	37.3 ± 12	82.9 ± 8.6
UUUCCAAACAUGUAAACCAAA	97.8 ± 3	85.3 ± 13	76.2 ± 8.5	106 ± 3.2
UUUCCACACAUGUAAACCAAA	94.67 ± 0.89	65.8 ± 8.3	69.5 ± 9.2	73.9 ± 6.4
UUUCCAGACAUGUAAACCAAA	90 ± 3.6	81.9 ± 12	66.4 ± 10	90.5 ± 4.8
UUUCCAUACAUGUAAACCAAA	91.5 ± 4.1	98.3 ± 15	68.8 ± 8.2	79.3 ± 2.3

From the supplement of paper PMC6206098
